Test results taken from publication PMC5700166.
Only a part is listed here, and it is no random draw. The list includes weakly bound sequences.

What was measured:
Assay in all cases: protein-binding microarray (PBM)
Details in all cases: PBM: ~300 nM protein, 6 mM HEPES pH 7.8, 80 mM KCl, 0.5 mM EDTA, 0.5 mM EGTA, 6% glycerol, 35 ng/ul poly-dIdC, 1% milk, 1 h, room temperature; Ap Aiptasia and Nv Nematostella (sea anemones) / Co Capsaspora / Aq Amphimedon (sponge) / Dm Drosophila / Hu human; RHD is the Rel homology domain; high values mean tight binding; most listed sequences are background and not binding sites; double strand, one strand shown
GST-Ap-NF-kB RHD = biological target: T1, GST-Ap-NF-kB RHD (UniProt A0A913YAJ5)
T1 sequence: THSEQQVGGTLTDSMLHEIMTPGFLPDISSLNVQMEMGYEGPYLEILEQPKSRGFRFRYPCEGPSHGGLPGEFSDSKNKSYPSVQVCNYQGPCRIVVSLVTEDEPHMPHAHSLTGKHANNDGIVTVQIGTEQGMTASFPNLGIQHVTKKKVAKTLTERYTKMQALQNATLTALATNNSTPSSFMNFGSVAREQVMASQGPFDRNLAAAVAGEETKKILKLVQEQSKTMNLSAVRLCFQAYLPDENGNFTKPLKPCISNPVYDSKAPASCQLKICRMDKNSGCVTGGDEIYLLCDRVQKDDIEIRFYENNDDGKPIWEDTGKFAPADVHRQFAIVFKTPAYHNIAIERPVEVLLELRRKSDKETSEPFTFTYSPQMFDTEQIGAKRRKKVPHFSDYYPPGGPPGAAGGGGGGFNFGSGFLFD

[1] = biological target: T2, GST-Nv-NF-kB (Cys allele) (UniProt E5G601)
T2 sequence: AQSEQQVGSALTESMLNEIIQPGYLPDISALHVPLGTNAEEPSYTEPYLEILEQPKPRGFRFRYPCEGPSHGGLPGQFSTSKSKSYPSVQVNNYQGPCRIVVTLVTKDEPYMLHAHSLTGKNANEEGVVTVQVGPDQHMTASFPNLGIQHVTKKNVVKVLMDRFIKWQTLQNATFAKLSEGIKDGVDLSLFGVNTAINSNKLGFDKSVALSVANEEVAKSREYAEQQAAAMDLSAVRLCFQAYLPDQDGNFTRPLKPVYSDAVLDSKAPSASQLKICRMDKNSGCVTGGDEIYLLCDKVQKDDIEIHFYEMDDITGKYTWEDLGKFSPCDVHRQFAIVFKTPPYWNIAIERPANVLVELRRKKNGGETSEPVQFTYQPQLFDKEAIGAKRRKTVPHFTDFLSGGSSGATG

GST-Co-NF-kB = biological target: T3, GST-Co-NF-kB (UniProt F1ARL5)
T3 sequence: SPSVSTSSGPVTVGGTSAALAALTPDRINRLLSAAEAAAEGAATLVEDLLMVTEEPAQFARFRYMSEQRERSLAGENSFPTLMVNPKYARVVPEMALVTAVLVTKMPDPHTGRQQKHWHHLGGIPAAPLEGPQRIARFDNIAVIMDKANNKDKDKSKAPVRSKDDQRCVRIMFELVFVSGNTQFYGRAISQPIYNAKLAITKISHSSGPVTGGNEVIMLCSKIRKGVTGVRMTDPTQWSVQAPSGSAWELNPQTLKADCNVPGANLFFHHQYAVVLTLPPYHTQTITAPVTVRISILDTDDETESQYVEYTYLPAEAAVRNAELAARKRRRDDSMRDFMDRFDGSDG

| Sequence | binding signal (GST-Ap-NF-kB RHD) [z-score] | binding signal [1] [z-score] | binding signal (GST-Co-NF-kB) [z-score] |
| --- | --- | --- | --- |
| CCGATTAACATCACATATTCCCCTGATGTTAATCGGGTCTTGATTCGCTTGACGCTGCTG | 7.49 | 8.81 | – |
| CCGATTAACATCAAAAAACCCACTGATGTTAATCGGGTCTTGATTCGCTTGACGCTGCTG | 2.65 | 2.49 | – |
| CCGATTAACATCAAGATTTCCCCTGATGTTAATCGGGTCTTGATTCGCTTGACGCTGCTG | 8.78 | 10.4 | – |
| CCGATTAACATCAACCTTTCCCCTGATGTTAATCGGGTCTTGATTCGCTTGACGCTGCTG | 5.33 | 6.21 | – |
| CCGATTAACATCAGAAATTACCCTGATGTTAATCGGGTCTTGATTCGCTTGACGCTGCTG | 3.88 | 6.24 | – |
| CCGATTAACATCAAAGACCCCCCTGATGTTAATCGGGTCTTGATTCGCTTGACGCTGCTG | 6.11 | 4.15 | – |
| CCGATTAACATCAGGGGAGGGAATGATGTTAATCGGGTCTTGATTCGCTTGACGCTGCTG | 3.95 | 5.44 | – |
| CCGATTAACATCACGAGATTCCCTGATGTTAATCGGGTCTTGATTCGCTTGACGCTGCTG | 3.03 | 3.39 | – |
| CCGATTAACATCAAAAATCCACCTGATGTTAATCGGGTCTTGATTCGCTTGACGCTGCTG | 2.25 | 2.65 | – |
| CCGATTAACATCAGGGAATTTACTGATGTTAATCGGGTCTTGATTCGCTTGACGCTGCTG | 4.29 | 6.69 | – |
| CCGATTAACATCACAAAATCCCCTGATGTTAATCGGGTCTTGATTCGCTTGACGCTGCTG | 9.85 | 10.8 | – |
| CCGATTAACATCAGAAAATACCCTGATGTTAATCGGGTCTTGATTCGCTTGACGCTGCTG | 5.86 | 8.27 | – |
| CCGATTAACATCAAGTACTTCCCTGATGTTAATCGGGTCTTGATTCGCTTGACGCTGCTG | 2.1 | 2.22 | – |
| CCGATTAACATCAAGGGAATTCCTGATGTTAATCGGGTCTTGATTCGCTTGACGCTGCTG | 7.9 | 8.71 | – |
| CCGATTAACATCACGTTTTTCCCTGATGTTAATCGGGTCTTGATTCGCTTGACGCTGCTG | 3.81 | 4.59 | – |
| CCGATTAACATCAGGAGTGCCCCTGATGTTAATCGGGTCTTGATTCGCTTGACGCTGCTG | 2.63 | 2.03 | – |
| CCGATTAACATCACGGGGATCCCTGATGTTAATCGGGTCTTGATTCGCTTGACGCTGCTG | 8.72 | 5.48 | – |
| CCGATTAACATCAGGCTTCCCCCTGATGTTAATCGGGTCTTGATTCGCTTGACGCTGCTG | 5.74 | 5.65 | – |
| CCGATTAACATCACCCCACCCCCTGATGTTAATCGGGTCTTGATTCGCTTGACGCTGCTG | 3.67 | 2.66 | – |
| CCGATTAACATCAAAAAACCCCATGATGTTAATCGGGTCTTGATTCGCTTGACGCTGCTG | 6.53 | 7.08 | – |

| Sequence | binding signal (GST-Ap-NF-kB RHD) [z-score] | binding signal [1] [z-score] | binding signal (GST-Co-NF-kB) [z-score] |
| --- | --- | --- | --- |
| CCGATTAACATCAGGGAGTTTTATGATGTTAATCGGGTCTTGATTCGCTTGACGCTGCTG | 5.33 | 7.35 | – |
| CCGATTAACATCAAAAGGGGATATGATGTTAATCGGGTCTTGATTCGCTTGACGCTGCTG | 4.87 | 5.63 | – |
| CCGATTAACATCAGAATCCCCCCTGATGTTAATCGGGTCTTGATTCGCTTGACGCTGCTG | 9.22 | 7.84 | – |
| CCGATTAACATCACTGGGATTTCTGATGTTAATCGGGTCTTGATTCGCTTGACGCTGCTG | 2.53 | 1.96 | – |
| CCGATTAACATCAGGGGAAAGAATGATGTTAATCGGGTCTTGATTCGCTTGACGCTGCTG | 4.95 | 6.07 | – |
| CCGATTAACATCATAAGCGGGGATGATGTTAATCGGGTCTTGATTCGCTTGACGCTGCTG | 3.32 | 3.81 | – |
| CCGATTAACATCAGGACAACCCCTGATGTTAATCGGGTCTTGATTCGCTTGACGCTGCTG | 3.21 | 3.16 | – |
| CCGATTAACATCAGGTGTTCCCATGATGTTAATCGGGTCTTGATTCGCTTGACGCTGCTG | 1.43 | 0.641 | – |
| CCGATTAACATCAAAACTCCCCGTGATGTTAATCGGGTCTTGATTCGCTTGACGCTGCTG | 7.7 | 6.47 | – |
| CCGATTAACATCAGGGGTTCCACTGATGTTAATCGGGTCTTGATTCGCTTGACGCTGCTG | 2.77 | 2.46 | 0.947 |
| CCGATTAACATCAGGTCTTTCCATGATGTTAATCGGGTCTTGATTCGCTTGACGCTGCTG | 0.0246 | -0.097 | -0.505 |
| CCGATTAACATCAGGAAAGTACATGATGTTAATCGGGTCTTGATTCGCTTGACGCTGCTG | -0.604 | 0.0184 | 0.383 |
| CCGATTAACATCAGGAAGACCCCTGATGTTAATCGGGTCTTGATTCGCTTGACGCTGCTG | 3.9 | 3.08 | 0.79 |
| CCGATTAACATCAGTACTTTCCATGATGTTAATCGGGTCTTGATTCGCTTGACGCTGCTG | -0.412 | -0.524 | -0.000814 |
| CCGATTAACATCACGGAATTCCATGATGTTAATCGGGTCTTGATTCGCTTGACGCTGCTG | 0.185 | 0.231 | -0.021 |
| CCGATTAACATCAGGGGTTTCCATGATGTTAATCGGGTCTTGATTCGCTTGACGCTGCTG | 5.75 | 5.04 | 1.21 |
| CCGATTAACATCAGTACTTCCCATGATGTTAATCGGGTCTTGATTCGCTTGACGCTGCTG | 1.53 | 0.975 | 1.42 |
| CCGATTAACATCAGGAATTTACATGATGTTAATCGGGTCTTGATTCGCTTGACGCTGCTG | -0.0934 | 0.174 | 0.345 |
| CCGATTAACATCACGGGATCTCCTGATGTTAATCGGGTCTTGATTCGCTTGACGCTGCTG | 2.16 | 0.527 | 0.247 |
